Drawing on publication PMC6570896, this text covers binding for 3 substances.

By UniProt entry, the sequences of proteins in these tests, tags left out.
UniProt Q93ZX1: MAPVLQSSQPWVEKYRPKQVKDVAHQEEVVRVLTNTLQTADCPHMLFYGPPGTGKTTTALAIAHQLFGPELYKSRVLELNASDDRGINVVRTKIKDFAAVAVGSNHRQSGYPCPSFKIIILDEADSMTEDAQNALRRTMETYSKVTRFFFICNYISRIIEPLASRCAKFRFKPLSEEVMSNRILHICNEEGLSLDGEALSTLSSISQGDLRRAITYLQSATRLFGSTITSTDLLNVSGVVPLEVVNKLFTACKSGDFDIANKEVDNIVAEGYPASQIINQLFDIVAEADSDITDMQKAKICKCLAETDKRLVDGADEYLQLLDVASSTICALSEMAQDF
UniProt Q9FXM3: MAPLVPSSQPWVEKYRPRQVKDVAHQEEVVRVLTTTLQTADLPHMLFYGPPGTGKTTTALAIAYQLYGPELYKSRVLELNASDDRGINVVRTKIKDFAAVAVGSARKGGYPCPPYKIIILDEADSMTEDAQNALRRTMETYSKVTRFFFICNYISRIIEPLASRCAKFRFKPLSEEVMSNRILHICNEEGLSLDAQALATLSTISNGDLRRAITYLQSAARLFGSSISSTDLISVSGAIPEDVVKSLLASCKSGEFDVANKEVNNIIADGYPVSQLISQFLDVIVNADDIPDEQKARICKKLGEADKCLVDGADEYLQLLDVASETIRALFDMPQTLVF
UniProt Q9M7Q7: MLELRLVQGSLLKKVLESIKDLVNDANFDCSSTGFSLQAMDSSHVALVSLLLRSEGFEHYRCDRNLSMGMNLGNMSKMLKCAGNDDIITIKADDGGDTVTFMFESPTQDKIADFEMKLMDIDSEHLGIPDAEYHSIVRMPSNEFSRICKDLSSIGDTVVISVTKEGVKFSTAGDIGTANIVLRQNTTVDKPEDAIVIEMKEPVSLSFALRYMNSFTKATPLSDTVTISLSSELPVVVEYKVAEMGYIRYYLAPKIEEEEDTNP
UniProt Q9ZW35: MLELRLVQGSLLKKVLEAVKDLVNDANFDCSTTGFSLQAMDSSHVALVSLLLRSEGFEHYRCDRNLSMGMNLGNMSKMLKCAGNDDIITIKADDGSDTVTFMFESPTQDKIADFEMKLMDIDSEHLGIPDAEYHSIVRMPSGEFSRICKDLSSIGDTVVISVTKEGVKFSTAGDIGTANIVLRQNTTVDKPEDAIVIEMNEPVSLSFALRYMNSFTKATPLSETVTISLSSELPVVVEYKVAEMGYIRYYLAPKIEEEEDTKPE
UniProt P17070: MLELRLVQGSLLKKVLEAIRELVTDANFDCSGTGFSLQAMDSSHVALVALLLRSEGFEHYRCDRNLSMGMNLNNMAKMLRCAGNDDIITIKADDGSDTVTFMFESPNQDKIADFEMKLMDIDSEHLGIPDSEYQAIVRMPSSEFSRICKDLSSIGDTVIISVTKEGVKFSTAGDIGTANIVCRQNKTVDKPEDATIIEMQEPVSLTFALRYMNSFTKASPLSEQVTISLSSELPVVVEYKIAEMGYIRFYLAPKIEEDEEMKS

These are yes or no findings as the source states them, for the method shown. Some entries that bind do so weakly or less than the wild type. For some assays here: Sequences can lack the tags named with a protein.

Test in all cases: two-hybrid; Clontech system, yeast AH109; RFC subunits as BD fusions, PCNAs as AD fusions; growth on SD-Leu-Trp-His-Ade, 7 days at 28 °C
The target in assay [1] is T1, AtRFC1-BD (Arabidopsis thaliana) (UniProt Q9C587).
T1 sequence: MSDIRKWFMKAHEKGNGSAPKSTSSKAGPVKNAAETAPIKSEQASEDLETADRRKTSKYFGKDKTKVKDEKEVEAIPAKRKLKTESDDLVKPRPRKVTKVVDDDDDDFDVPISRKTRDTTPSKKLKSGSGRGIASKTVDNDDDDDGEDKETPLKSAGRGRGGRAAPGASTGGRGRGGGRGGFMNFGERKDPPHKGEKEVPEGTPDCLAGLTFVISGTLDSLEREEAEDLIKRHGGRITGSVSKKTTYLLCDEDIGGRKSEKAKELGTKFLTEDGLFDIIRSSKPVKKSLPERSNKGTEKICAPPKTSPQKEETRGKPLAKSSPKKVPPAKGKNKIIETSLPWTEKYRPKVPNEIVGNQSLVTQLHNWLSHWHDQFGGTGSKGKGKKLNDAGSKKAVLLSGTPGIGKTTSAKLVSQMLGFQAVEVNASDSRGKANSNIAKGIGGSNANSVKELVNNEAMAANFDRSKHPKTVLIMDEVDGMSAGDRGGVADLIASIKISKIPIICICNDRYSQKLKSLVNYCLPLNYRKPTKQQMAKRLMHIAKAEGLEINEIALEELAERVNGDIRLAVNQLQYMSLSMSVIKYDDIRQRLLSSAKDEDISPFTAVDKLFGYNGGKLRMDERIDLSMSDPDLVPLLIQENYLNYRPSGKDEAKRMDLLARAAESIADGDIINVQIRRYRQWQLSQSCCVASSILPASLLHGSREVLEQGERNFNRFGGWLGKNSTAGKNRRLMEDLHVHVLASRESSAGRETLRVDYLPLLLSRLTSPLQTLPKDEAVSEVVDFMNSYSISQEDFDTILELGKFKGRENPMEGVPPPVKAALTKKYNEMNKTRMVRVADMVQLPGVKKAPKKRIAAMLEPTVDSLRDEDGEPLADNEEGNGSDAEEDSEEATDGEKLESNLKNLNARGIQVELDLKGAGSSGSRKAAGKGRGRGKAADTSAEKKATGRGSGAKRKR

Assay [2] has as its target T2, AtRFC2-BD (Arabidopsis thaliana) (UniProt Q9CAM7).
T2 sequence: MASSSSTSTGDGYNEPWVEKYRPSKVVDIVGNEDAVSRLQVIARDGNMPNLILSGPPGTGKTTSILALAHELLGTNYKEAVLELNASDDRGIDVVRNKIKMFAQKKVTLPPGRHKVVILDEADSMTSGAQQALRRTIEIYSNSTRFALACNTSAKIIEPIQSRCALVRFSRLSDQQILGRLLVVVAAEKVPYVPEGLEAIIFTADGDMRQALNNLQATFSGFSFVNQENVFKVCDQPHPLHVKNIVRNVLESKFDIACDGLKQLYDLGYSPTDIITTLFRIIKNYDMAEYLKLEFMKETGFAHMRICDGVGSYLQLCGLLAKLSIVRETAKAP

Assay [3] deals with AtRFC4-BD (Arabidopsis thaliana) (UniProt Q93ZX1).
Assay [4] concerns the target T3, OsRFC4-BD (rice (Oryza sativa)) (UniProt Q7XRX1).
T3 sequence: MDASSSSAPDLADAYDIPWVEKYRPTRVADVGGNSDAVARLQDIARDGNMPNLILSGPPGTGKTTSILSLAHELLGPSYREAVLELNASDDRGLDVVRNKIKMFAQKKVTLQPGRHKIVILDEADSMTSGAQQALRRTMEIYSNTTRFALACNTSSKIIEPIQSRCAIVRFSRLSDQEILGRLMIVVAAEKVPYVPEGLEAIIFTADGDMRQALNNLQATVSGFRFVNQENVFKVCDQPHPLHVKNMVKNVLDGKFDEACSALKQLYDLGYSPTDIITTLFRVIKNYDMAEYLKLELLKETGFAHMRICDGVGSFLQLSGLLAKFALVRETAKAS

Assay [5] concerns the target T4, OsRFC3-BD (rice (Oryza sativa)) (UniProt Q6YZ54).
T4 sequence: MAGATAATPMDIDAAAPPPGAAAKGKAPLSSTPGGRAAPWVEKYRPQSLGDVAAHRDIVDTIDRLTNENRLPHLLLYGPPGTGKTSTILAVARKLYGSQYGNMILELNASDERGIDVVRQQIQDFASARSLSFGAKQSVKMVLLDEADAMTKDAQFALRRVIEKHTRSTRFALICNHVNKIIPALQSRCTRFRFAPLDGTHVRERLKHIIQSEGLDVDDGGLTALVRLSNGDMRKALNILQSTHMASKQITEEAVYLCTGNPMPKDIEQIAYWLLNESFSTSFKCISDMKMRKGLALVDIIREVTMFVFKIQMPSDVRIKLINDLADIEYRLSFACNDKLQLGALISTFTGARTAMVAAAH

The target in assay [6] is T5, OsRFC1-BD (rice (Oryza sativa)) (UniProt Q2R2B4).
T5 sequence: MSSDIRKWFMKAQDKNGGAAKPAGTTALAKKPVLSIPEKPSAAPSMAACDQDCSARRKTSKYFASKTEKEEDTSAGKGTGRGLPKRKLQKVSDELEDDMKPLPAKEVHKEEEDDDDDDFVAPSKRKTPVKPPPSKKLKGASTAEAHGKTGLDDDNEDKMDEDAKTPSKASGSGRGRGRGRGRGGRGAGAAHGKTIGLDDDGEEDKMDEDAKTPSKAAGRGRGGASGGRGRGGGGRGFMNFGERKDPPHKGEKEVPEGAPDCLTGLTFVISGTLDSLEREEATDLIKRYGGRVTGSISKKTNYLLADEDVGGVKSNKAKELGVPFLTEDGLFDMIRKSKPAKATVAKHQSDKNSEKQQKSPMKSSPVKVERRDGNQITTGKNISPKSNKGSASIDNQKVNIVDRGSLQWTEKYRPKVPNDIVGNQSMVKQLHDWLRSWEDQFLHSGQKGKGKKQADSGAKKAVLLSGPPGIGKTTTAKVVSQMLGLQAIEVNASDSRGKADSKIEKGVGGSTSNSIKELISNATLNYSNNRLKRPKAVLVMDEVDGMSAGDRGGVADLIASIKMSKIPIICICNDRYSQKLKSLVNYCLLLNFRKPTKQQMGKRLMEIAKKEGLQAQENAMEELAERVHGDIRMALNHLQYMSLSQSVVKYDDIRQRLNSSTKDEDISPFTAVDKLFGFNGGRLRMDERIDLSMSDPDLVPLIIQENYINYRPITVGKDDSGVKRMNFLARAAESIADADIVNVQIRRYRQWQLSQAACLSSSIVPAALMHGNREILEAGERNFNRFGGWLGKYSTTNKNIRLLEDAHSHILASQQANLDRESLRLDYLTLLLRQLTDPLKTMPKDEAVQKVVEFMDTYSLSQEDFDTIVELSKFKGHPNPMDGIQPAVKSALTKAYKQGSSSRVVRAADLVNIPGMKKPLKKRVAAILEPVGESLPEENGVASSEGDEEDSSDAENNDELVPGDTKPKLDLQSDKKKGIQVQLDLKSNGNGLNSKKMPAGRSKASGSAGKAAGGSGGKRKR

The target in assay [7] is OsRFC2-BD (rice (Oryza sativa)) (UniProt Q9FXM3).
The target in assay [8] is T6, OsRFC5-BD (rice (Oryza sativa)) (UniProt Q852K3).
T6 sequence: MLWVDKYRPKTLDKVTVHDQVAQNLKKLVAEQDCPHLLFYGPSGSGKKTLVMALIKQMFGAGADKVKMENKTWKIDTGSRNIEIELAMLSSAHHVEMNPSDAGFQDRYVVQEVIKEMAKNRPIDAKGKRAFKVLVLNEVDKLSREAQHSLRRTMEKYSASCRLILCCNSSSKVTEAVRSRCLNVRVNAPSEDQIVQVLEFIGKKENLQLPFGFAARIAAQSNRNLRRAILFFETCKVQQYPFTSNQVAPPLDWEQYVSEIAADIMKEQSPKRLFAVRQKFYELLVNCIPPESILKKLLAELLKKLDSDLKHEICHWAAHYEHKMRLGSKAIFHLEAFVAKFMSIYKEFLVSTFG

As to AtPCNA1-AD (from UniProt Q9M7Q7 1-263), the binding entry is given as “no binding” in assay [1], “binds” in assay [2] and “binds” in assay [3].
Turning to AtPCNA2-AD (from UniProt Q9ZW35 1-264), the results for the binding entry in assay [1], in assay [2] and in assay [3] were “no binding”, “binds” and “binds”, respectively.
Consider OsPCNA-AD (from UniProt P17070 1-263), for which the binding result in assay [4], in assay [5], in assay [6], in assay [7] and in assay [8] was “binds” in each case.
